Not every detail of the peptide structures is certain; ends, links or a residue may be inferred.
Key:
[1] = Peptide self-association by temperature profiling in RP-HPLC; type: physicochemical; details: for PA: self-association parameter relative to random coil control peptide RC; for Tp: temperature at which maximum retention time is observed, 5-77° C.
Description: Retention behavior from eight AMPs after normalization to their retention times at 5° C. over the temperature range 5° C. to 41° C. in 2° C. increments or 5° C. to 75° C. in 10° C. increments (methodology details provided in Examples). […] Peptide denotions in FIG. 5 have been abbreviated from those shown in Table 1G; for example, D87(Lys1-6 Arg-1) has been shortened to D87(6 Arg-1). RC is a random coil control peptide used for RP-HPLC temperature profiling. The peptide self-association parameter, PA, represents the maximum change in peptide retention time relative to the random coil peptide, RC (PA values shown in Table 6). […] T., et al. J. Med. Chem. 2019, 62:3354-66.
Hemoglobin release was determined spectrophotometrically at 570 nm.
Peptide self-association, the ability to dimerize/oligomerize in aqueous solution, is a very important parameter to optimize antimicrobial activity and toxicity as measured by hemolytic activity. We have proposed that the monomeric random-coil antimicrobial peptides in aqueous solution are best suited to pass through a polysaccharide capsule, the outer membrane lipopolysaccharide and the cell wall peptidoglycan layer of Gram-negative bacteria prior to penetration into the cytoplasmic membrane, where there is induction of α-helical structure and disruption of membrane structure, cell leakage and death of bacterial cells. In contrast, if the self-association ability of an AMP in aqueous medium is too strong, stable folded dimers/oligomers are formed through interaction of their non-polar faces which decreases the ability of the AMP to dissociate to monomer and the dimer/oligomer to effectively pass through the capsule and cell wall to reach the cytoplasmic membrane. The ability of an AMP to self-associate was determined by a RP-HPLC technique developed in our laboratory, referred to as temperature profiling over the temperature range 5° C. to 80° C. […] These eight AMPs are compared to a random-coil control peptide denoted RC. […] This linear decrease in retention behavior with increasing temperature represents the general effects of temperature due to greater solute diffusivity and enhanced mass transfer between the mobile and stationary phases. The difference in retention time between an amphipathic α-helical antimicrobial peptide and the RC control peptide is a measure of the ability of a peptide to associate. The association parameter, PA is large for AMPs without specificity determinants (Ala 13 and Ala 16) ranging from 12.5 to 28.0 min (Table 6) and is shown by a black arrow in FIG. 5. The association parameter, PA, is dramatically smaller for AMPs with specificity determinants (Lys 13 and Lys 16 in the center of the non-polar face) and range from 0 to 6 min (Table 6). Thus, specificity determinants dramatically lower self-association, which is a desired property of effective AMPs. Effective AMPs have low self-association in aqueous medium to prevent dimerization and thus can more easily pass through the capsule and cell wall as a random coil monomer to reach the cytoplasmic membrane where the AMPs must be able to be induced into α-helical structure by the hydrophobicity of the membrane and disrupt the membrane causing leakage and death of the bacterial cell. We have shown previously that AMPs which strongly self-associate by their hydrophobic face (i.e., that are too hydrophobic on their non-polar face) show weak antimicrobial activity (Chen et al., J. Biol. Chem. 2005, 13:12316-29; Chen et al., Antimicrob. Agents Chemother. 2007, 51:1398-1406).

[2] = Peptide hydrophobicity by RP-HPLC retention time; type: physicochemical; details: RP-HPLC retention time at pH 2, 25° C.
Description: Column: Zorbax 300 SB-C8, 150×2.1 mm ID, 5-μm particle size, 300-Å pore size; conditions, linear AB gradient (0.25% acetonitrile/min) at a flow-rate of 0.3 ml/min, where eluent A was 20 mM aq. TFA and eluent B was 20 mM TFA in acetonitrile and the temperature was 25° C. The sequences of the ten peptides (with seven peptides containing Lys specificity determinants at positions 13 and 16 of the non-polar face (see FIG. 1) are shown in Table 1G. Peptide denotions in FIG. 4 have been abbreviated from those shown in Table 1G; for example, D87(Lys1-6 Arg-1) has been shortened to D87(6 Arg-1). For the peptides without specificity determinants, we have added A13/A16 to the peptide denotions. It is interesting that the Dab containing peptides are more hydrophilic than the Dap containing peptides even thought the Dab containing peptides have an additional carbon atom per Dab residue.
Retention behavior in reversed-phase chromatography is an excellent method to represent overall peptide hydrophobicity. Retention times of amphipathic α-helical peptides are highly sensitive to the conformational status of the peptides upon interaction with the hydrophobic surface of the column matrix. The non-polar face of amphipathic α-helical peptides represents the preferred binding domain for interaction with the hydrophobic matrix of the reversed-phase column. In this study, the observed peptide retention times are relative hydrophobicities because they are dependent on the TFA concentration and organic solvent in the mobile phase, gradient rate, column temperature, flow-rate and column used. The three AMPs without specificity determinants have hydrophobic residues on the non-polar face of the helix (8 Leu residues in two clusters (L2, L4, L6 and L9 in the N-terminal cluster and L17, L20, L21 and L24 in the C-terminal cluster and 2 Ala residues at positions 13 and 16 between the two clusters of Leu residues (FIG. 2). This hydrophobic surface is the preferred binding domain for binding to the hydrophobic surface on the column matrix, however, the overall hydrophobicity is also affected by the composition of residues on the polar face which contains six positively-charged residues (FIG. 2). The amino acid composition on the polar face has the positively-charged residues in the same positions (3, 7, 11, 18, 22 and 26) but varies the type of positively-charged residue from either six Arg, Lys, Orn, Dab or Dap residues. The seven AMPs with specificity determinants have two Lys residues between the two hydrophobic clusters (FIG. 2), decreasing the overall hydrophobicity. Thus, the overall hydrophobicity of the five AMP with +9 charge varied from 115.8 to 143.2 min, considerably less than the peptides without specificity determinants which varied from 158.3 to 188.7 min (FIG. 4 and Table 6). All ten peptides used in this study could be readily separated by reversed-phase chromatography with the seven peptides with specificity determinants being much more hydrophilic than the three control peptides without specificity determinants (FIG. 4). The type of positively-charged residue on the polar face has a dramatic effect on the overall hydrophobicity with the Dab residue being more hydrophilic (less hydrophobic) than the Dap residue even though the Dab residues are a carbon atom larger in their side-chain compared to the Dap residues (Dab peptide (D86) retention time 115.8 min compared to Dap peptide (D105) retention time of 127.9 min). This can be explained by the Dab residues stabilizing the α-helical structure considerably more than Dap residues.

[3] = tested on: Acinetobacter baumannii isolates resistant to classical antibiotics; type: cell-based; details: geometric mean over 20 strains
Excerpt: Thus, shortening the number of carbon atoms between the side-chain amino group and the α-carbon atom from four (Lys) to one (diaminopropionic acid) had very little effect on antibacterial activity (Table 2). We also determined the antibacterial activity of our five AMPs against 20 additional Acinetobacter baumannii isolates from four continents, 12 different countries and 17 different cities that were resistant to 18 different antibiotics. […] Thus, it is very clear that changing the type of positively-charged residue on the polar face of these AMPs had very little effect on the antibacterial activities.

| Compound | PA [1] [min] | Tp [1] [°C] | Hydrophobicity pH 2 tR [2] [min] | MICGM [3] [µM] |
| --- | --- | --- | --- | --- |
| CC(=O)N[C@H](CCCCN)C(=O)N[C@H](CC(C)C)C(=O)N[C@H](CCCCN)C(=O)N[C@H](CO)C(=O)N[C@H](CC(C)C)C(=O)N[C@H](CC(C)C)C(=O)N[C@H](CCCCN)C(=O)N[C@@H](C(=O)N[C@H](CC(C)C)C(=O)N[C@H](CO)C(=O)N[C@H](CCCCN)C(=O)N[C@H](C)C(=O)N[C@H](CCCCN)C(=O)N[C@H](C)C(=O)N[C@H](C)C(=O)N[C@H](CCCCN)C(=O)N[C@H](CC(C)C)C(=O)N[C@H](CCCCN)C(=O)N[C@@H](C(=O)N[C@H](CC(C)C)C(=O)N[C@H](CC(C)C)C(=O)N[C@H](CCCCN)C(=O)N[C@H](C)C(=O)N[C@H](CC(C)C)C(=O)N[C@H](CO)C(=O)N[C@H](CO)C(N)=O)[C@H](C)O)[C@H](C)O [D101(Lys^1Ser^26-5Lys-1), Ac-KL(Lys)SLL(Lys)TLS(Lys)AKAAKL(Lys)TLL(Lys)ALS(Ser)-amide] | 6.0 | 21.2 | 140.3 | 1.0 |
| CC(=O)N[C@H](CCCCN)C(=O)N[C@H](CC(C)C)C(=O)N[C@@H](CCN)C(=O)N[C@H](CO)C(=O)N[C@H](CC(C)C)C(=O)N[C@H](CC(C)C)C(=O)N[C@@H](CCN)C(=O)N[C@@H](C(=O)N[C@H](CC(C)C)C(=O)N[C@H](CO)C(=O)N[C@@H](CCN)C(=O)N[C@H](C)C(=O)N[C@H](CCCCN)C(=O)N[C@H](C)C(=O)N[C@H](C)C(=O)N[C@H](CCCCN)C(=O)N[C@H](CC(C)C)C(=O)N[C@@H](CCN)C(=O)N[C@@H](C(=O)N[C@H](CC(C)C)C(=O)N[C@H](CC(C)C)C(=O)N[C@@H](CCN)C(=O)N[C@H](C)C(=O)N[C@H](CC(C)C)C(=O)N[C@H](CO)C(=O)N[C@@H](CCN)C(N)=O)[C@H](C)O)[C@H](C)O [D86(Lys^1-6Dab-1), Ac-KL(L-Dab)SLL(L-Dab)TLS(L-Dab)AKAAKL(L-Dab)TLL(L-Dab)ALS(L-Dab)-amide] | 0 | 5.0 | 115.8 | 1.0 |

From US20220105150A1, “AMPHIPATHIC ALPHA-HELICAL ANTIMICROBIAL PEPTIDES TREAT INFECTIONS BY GRAM-NEGATIVE PATHOGENS” (priority 2019, published 2022)
